The name of at least one read-out is uncertain.
How the values were obtained:
[1] = system: bed bug (Cimex lectularius); assay: Bed bug threshold assay (mouse bait, treated filter paper on acrylic rod bridges); type: in vivo; conditions: 90 μl isopropyl alcohol + 10 μl testing compound on filter paper; bed bugs crossing treated vs control; mouse as bait; 10 minutes
Experimental: Compounds and blends of the present invention were assayed for their ability to modify bed bug (Cimex lectularius) behavior using a bed bug threshold assay. Three interceptors were laid side by side and acrylic rods were stuck on to the sides with putty so that they went from interceptor to interceptor forming bridges. Paper towels sections of 6 inches by 2 inches were placed so that they hung off of the ends of the acrylic rods to form harborage for bed bugs. Next, 125 mm pieces of Whatman Filter paper treated either with the compound of interest (90 μl isopropyl alcohol+10 μl testing compound) or with control solution of 100 μl isopropyl alcohol were stuck to the top of the acrylic rods with the compound impregnated filter on one rod and control impregnated filter on the other. In the middle interceptor a mouse was placed as bait for the bed bugs. In either outside interceptors 10 bed bugs each were placed in holding dishes, allowed to equilibrate for 10 minutes then released on the harborage. Video footage at 1 second time intervals was obtained for 10 minutes then analyzed for bed bug movements. Repellency of any given compound or blend was calculated by counting how many bed bugs traversed the acrylic rods across either the treated or the control Whatman filter paper. Percent repellency was determined by comparing the number of bed bugs which crossed the treated Whatman filter paper to the number of bed bugs which crossed the control Whatman filter paper.

[2] = system: bed bug (Cimex lectularius); assay: Bed bug repellency assay (filter paper harborage, petri dish); type: in vivo; conditions: for % Repellency / Repellency Category: individual compounds; for % Repellency: 10 microliters compound + 90 microliters isopropyl alcohol on filter paper tent, 10 bed bugs, 5 minutes, vs control; for Repellency Category: category from % repellency; for Ind % Rep (percent repellency of the individual compound): values obtained in Example 1 for the individual compound of a blend
Experimental: Compounds and blends of the present invention were assayed for their ability to modify bed bug (Cimex lectularius) behavior using a bed bug repellency assay. This assay takes advantage of the bed bug's natural instinct to seek harborage. Two petri dishes were obtained and the inner areas of each were sanded down (leaving the perimeter smooth.) Talc was applied on the perimeter and on the inside walls of the petri dishes with a small paint brush to prevent bed bugs from escaping. A cut off top portion of a plastic cup was placed upside down in the center of one petri dish to create a holding arena for the bed bugs. A large plastic secondary container was gathered and a paper towel was laid down inside the bottom. The petri dish was then placed inside and ten bed bugs were placed inside the cut off portion of the cup.
Next, two pieces of filter paper were cut down the middle to yield 4 equally sized halves. Three pieces were placed inside a glass dish […] and the remaining piece was placed in a separate dish. All four pieces were folded down the middle to create a “tent” or “harborage” when laid such that the folded crease faced up. 100 microliters of isopropyl alcohol was pipetted into three pieces of filter paper (all housed in the first glass dish.) In a separate 4 ml vial, 90 microliters of isopropyl alcohol was combined and vortexed with 10 microliters of the compound or compound combination being tested. 100 microliters of this solution [comprising a total of […] of compound(s)] was pipetted onto the filter paper in the separate dish. All filter papers were then allowed to dry. Once dry, experiments were conducted first with two filter paper halves comprising only the isopropyl alcohol (control experiment) and then with the remaining filter paper halves [one with only isopropyl alcohol and one comprising the test compound(s).] Filter paper halves were placed on opposing sides of experimental petri dishes and bed bugs were allowed to move freely within the dishes by removal of the plastic cup top. Movement was allowed to continue for 5 minutes before the number bed bugs beneath each filter paper tent was recorded.

| SMILES | % Repellency [1] [%] | % Repellency [2] [%] | Repellency Category [2] | Ind % Rep (percent repellency of the individual compound) [2] [%] |
| --- | --- | --- | --- | --- |
| CCc1cnccn1 [BBC032, 2-ethylpyrazine] | 51 | 49 | Moderate (Compounds with a percent repellency value of 40-60% were categorized as moderate repellents) | 49 |
| C/C=C(\C)C(=O)OC(CC)CCCCC (stereo not drawn) [BBC033, 1-ethylhexyl tiglate] | 24 | 49 | Moderate (Compounds with a percent repellency value of 40-60% were categorized as moderate repellents) | – |
| CCC(=O)OCC=Cc1ccccc1 [BBC037, cinnamyl propionate] | 78 | 41 | Moderate (Compounds with a percent repellency value of 40-60% were categorized as moderate repellents) | – |
| Cc1ccnc(C)c1 [BBC038, 2,4-lutidine] | 80 | 39 | Mild (Compounds with a percent repellency value of 20-40% were categorized as mild repellents) | 39 |
| C/C=C/C(=O)OC [BBC039, methyl crotonate] | 46 | 38 | Mild (Compounds with a percent repellency value of 20-40% were categorized as mild repellents) | – |
| CCC(=O)OC/C=C/c1ccccc1 [BBC042, trans-cinnamyl propionate] | 73 | 35 | Mild (Compounds with a percent repellency value of 20-40% were categorized as mild repellents) | – |
| CCc1nccnc1OC [BBC044, 2-ethyl-3-methoxypyrazine] | 95 | 29 | Mild (Compounds with a percent repellency value of 20-40% were categorized as mild repellents) | – |
| CCc1nccnc1CC [BBC045, 2,3-diethylpyrazine] | 93 | 24 | Mild (Compounds with a percent repellency value of 20-40% were categorized as mild repellents) | 24 |
| CCCCCCC(=O)OC [BBC050, methyl heptanoate] | 51 | 20 | Mild (Compounds with a percent repellency value of 20-40% were categorized as mild repellents) | – |

Reference: patent US20170251655A2, “COMPOSITIONS AND METHODS FOR CAPTURING, KILLING OR REPELLING BED BUGS” (OLFACTOR LABORATORIES, INC., priority 2014, published 2017)
